{"source": "PubChem BioAssay AID1347428", "about": "(National Center for Advancing Translational Sciences (NCATS), 2020)", "note": "In all, about 91,000 compounds went through this assay and about 290 (0.32%) were called active. This list was built around the results that the source calls inconclusive (neither active nor inactive); the mix of calls is not that of the screen. The call rests on the fitted dose curve; in most records, active means well fitted inhibition curve with a large enough effect; inconclusive means small, poorly fitted or top-dose-only effect; inactive means no such curve, though single readings can be large or run the other way. Potencies of inconclusive entries are doubtful fits and often do not repeat. On the % scale 0 is the no-effect control and ±100 the full control effect; potency means the concentration at half of the fitted maximal effect; tags describe the fitted curve by direction and shape.", "data": [{"target": "Single-stranded DNA cytosine deaminase (Homo sapiens) (UniProt Q9GZX7)", "sequence (Q9GZX7 whole entry, looked up)": "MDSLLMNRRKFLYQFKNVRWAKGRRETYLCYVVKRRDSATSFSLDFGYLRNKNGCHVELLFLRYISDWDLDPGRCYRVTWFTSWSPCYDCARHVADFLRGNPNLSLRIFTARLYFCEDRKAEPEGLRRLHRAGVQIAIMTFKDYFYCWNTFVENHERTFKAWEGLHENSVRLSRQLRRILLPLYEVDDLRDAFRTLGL", "assay": "Primary qHTS assay for inhibitors of Activation Induced Cytidine Deaminase (AID): AID signal; further: nearly all actives have a fitted effect of over 25% in size", "details": "AID deamination FRET fluorescence, UDG-coupled, 4 h; activity change, negative = inhibition: at 115 µM (top of the series)", "values": [{"compound": "CC[C@@H](C)[C@H]1O[C@]2(CC[C@H]1C)C[C@@H]1C[C@@H](CC=C(C)[C@@H](O[C@H]3C[C@H](OC)[C@@H](O[C@H]4C[C@H](OC)[C@@H](O)[C@H](C)O4)[C@H](C)O3)[C@@H](C)C=CC=C3CO[C@@H]4[C@H](O)C(C)=C[C@@H](C(=O)O1)[C@]34O)O2", "Potency": "inconclusive: 44.7 µM [inhibitor, partial curve]"}, {"compound": "COc1ccc(NC(=O)C(c2ccc(C)cc2)N(C)C(=O)/C=C\\c2ccc3c(c2)OCO3)cc1", "note": "(centres undefined)", "Potency": "inconclusive: 25.1 µM [inhibitor, full curve]"}, {"compound": "CCOc1ccc(CCNc2ncnc3onc(-c4ccc(Cl)cc4)c23)cc1OCC", "Potency": "inconclusive: 35.5 µM [inhibitor, partial curve, poor fit]"}, {"compound": "Cc1nn(C)c(C)c1NC(=O)c1cc2sccc2n1Cc1ccccc1", "activity change, negative = inhibition": "inactive: -0.397%"}, {"compound": "COc1cccc(NC(=O)CSc2nc3ccc(NC(=O)c4cccs4)cc3s2)c1", "activity change, negative = inhibition": "inactive: 4.96%"}, {"compound": "Cc1ccc(C(=O)CC2(O)C(=O)N(Cc3ccccc3F)c3ccccc32)cc1", "note": "(centres undefined)", "Potency": "inconclusive: 100 µM [inhibitor, single point]"}, {"compound": "N#CC1(c2ccc(NC(=O)c3ccc(Cl)cc3)cc2)CCCC1", "activity change, negative = inhibition": "inactive: 0.619%"}, {"compound": "CCN(C(=O)C1CCC(CNS(=O)(=O)c2cccc3nsnc23)CC1)c1ccc(C)c(C)c1", "note": "(centres undefined)", "activity change, negative = inhibition": "inactive: 11.8% [at 57.5 µM]"}, {"compound": "CCOC(=O)C1CCN(c2nc3c(S(=O)(=O)c4ccccc4)nnn3c3ccsc23)CC1", "Potency": "inconclusive: 15.8 µM [inhibitor, full curve, poor fit]"}, {"compound": "CC(C)(C)c1ccc(C(=O)NCC(c2cccs2)S(=O)(=O)c2ccccc2)cc1", "note": "(centres undefined)", "Potency": "inconclusive: 25.1 µM [inhibitor, full curve, poor fit]"}, {"compound": "COC(=O)c1ccc2c(=O)n(CCCCCC(=O)NCc3ccc(Cl)cc3)c(=O)[nH]c2c1", "Potency": "inconclusive: 15.8 µM [inhibitor, full curve, poor fit]"}, {"compound": "CCc1nnc(SCc2cc(C)ccc2C)c2cc3sc(C)cc3n12", "Potency": "inconclusive: 56.2 µM [inhibitor, partial curve, poor fit]"}, {"compound": "CCc1cccc(NC(=O)CSc2nc3ccsc3c(=O)n2CC)c1", "Potency": "inconclusive: 79.4 µM [inhibitor, single point]"}, {"compound": "CCn1c(/C(C#N)=C/c2ccccc2Cl)nc2ccccc21", "Potency": "inconclusive: 35.5 µM [inhibitor, partial curve]"}, {"compound": "O=C(Nc1ccc(Br)cc1)c1cccc(C(=O)Nc2ccc(Br)cc2)c1", "activity change, negative = inhibition": "inactive: -4.72%"}, {"compound": "COc1ccc(Nc2c3c(nc4ccc(NC(=O)/C=C/c5cccc(OC)c5OC)cc24)CCCC3)cc1OC", "Potency": "inconclusive: 31.6 µM [inhibitor, partial curve, poor fit]"}, {"compound": "COC(=O)c1sc(=S)n(-c2cc(Cl)ccc2C)c1N", "activity change, negative = inhibition": "inactive: 3.73%"}, {"compound": "COc1cc(OC)c(NC(=O)Nc2c(C)n(C)n(-c3ccccc3)c2=O)cc1Cl", "Potency": "inconclusive: 89.1 µM [inhibitor, partial curve, poor fit]"}, {"compound": "COc1ccc(C(=O)NCC(c2ccc(N(C)C)cc2)N2CCc3ccccc32)cc1", "note": "(centres undefined)", "Potency": "inconclusive: 17.8 µM [inhibitor, full curve, poor fit]"}, {"compound": "CCCN1CCN(c2cc3c(cc2F)c(=O)c(S(=O)(=O)c2ccc(Cl)cc2)cn3C)CC1", "Potency": "inconclusive: 39.8 µM [inhibitor, full curve, poor fit]"}, {"compound": "CC(NC(=O)c1ccc2c(c1)N(Cc1ccc(Cl)cc1)C(=O)c1ccccc1S2=O)c1ccccc1", "note": "(centres undefined)", "Potency": "inconclusive: 25.1 µM [inhibitor, partial curve, poor fit]"}, {"compound": "CC1=C(C(=O)N(CC(=O)NCc2ccc(C)cc2)c2ccc(Cl)cc2)SCCO1", "activity change, negative = inhibition": "inactive: -21.7%"}, {"compound": "Cc1cc(C)n2c(Nc3ccccc3)c(-c3ccccc3)nc2n1", "Potency": "inconclusive: 50.1 µM [inhibitor, partial curve, poor fit]"}, {"compound": "CCC(C)(C)NC(=O)CSc1nc(C)c(C)n1C1CCCCC1", "activity change, negative = inhibition": "inactive: -3.05%"}, {"compound": "Fc1ccc(C2C=C(c3ccccc3)NC(=S)N2)cc1", "note": "(centres undefined)", "activity change, negative = inhibition": "inactive: -4.12%"}, {"compound": "CCC1CCc2c(sc(NC(=O)/C=C/c3ccc(C(C)(C)C)cc3)c2C#N)C1", "note": "(centres undefined)", "activity change, negative = inhibition": "inactive: 3.74%"}, {"compound": "Cc1cc(C)cc(-n2c(C)nc3cc(C(=O)NCc4ccc(F)cc4)ccc32)c1", "Potency": "inconclusive: 50.1 µM [inhibitor, partial curve, poor fit]"}, {"compound": "COc1cccc(NC(CNS(=O)(=O)c2ccc(Cl)cc2)c2ccccc2)c1", "note": "(centres undefined)", "activity change, negative = inhibition": "inactive: -1.77%"}, {"compound": "Cc1cncn1CCc1nc2c3ccccc3nc(SCC(=O)Nc3ccc(F)cc3)n2n1", "activity change, negative = inhibition": "inactive: 9.02%"}, {"compound": "CCCN(CCC)CCNC(=O)c1sc2nc3n(c(=O)c2c1C)CCCCC3", "Potency": "inconclusive: 89.1 µM [inhibitor, partial curve, poor fit]"}, {"compound": "CC1CCCC(NC(=O)c2ccc(NC(=O)CC#N)cc2)C1C", "note": "(centres undefined)", "activity change, negative = inhibition": "inactive: 2.53%"}, {"compound": "COc1ccc(-n2c(C)nc3cc(C(=O)NC4CCCCCC4)ccc32)cc1", "Potency": "inconclusive: 100 µM [inhibitor, single point]"}, {"compound": "CC(C)c1cc(=O)oc2cc(OS(=O)(=O)c3ccc(F)cc3)ccc12", "activity change, negative = inhibition": "inactive: -14.8%"}, {"compound": "CCc1c(C)sc2c1CCN(C(=O)Nc1cc(C)ccc1OC)C2c1ccc(F)cc1", "note": "(centres undefined)", "Potency": "inconclusive: 56.2 µM [inhibitor, partial curve, poor fit]"}, {"compound": "CCc1ccc(N2C(=O)CSC23C(=O)N(Cc2cccc(OC)c2)c2ccccc23)cc1", "note": "(centres undefined)", "Potency": "inconclusive: 22.4 µM [inhibitor, partial curve, poor fit]"}, {"compound": "Cc1c(C(=O)N(Cc2cccc(F)c2)C2CCS(=O)(=O)C2)oc2cc(Br)ccc12", "note": "(centres undefined)", "Potency": "inconclusive: 10 µM [inhibitor, full curve]"}, {"compound": "CCOC(=O)c1cc2c(=O)n3ccccc3nc2n(C(C)C)c1=NC(=O)c1cc2ccccc2o1", "Potency": "inconclusive: 63.1 µM [inhibitor, partial curve, poor fit]"}, {"compound": "CCNC(=S)NNC(=O)C(C)C", "activity change, negative = inhibition": "inactive: -3.72%"}, {"compound": "O=C(NCCn1cc(SCc2ccccc2Cl)c2ccccc21)c1cccs1", "Potency": "inconclusive: 44.7 µM [inhibitor, partial curve, poor fit]"}, {"compound": "Cc1ccc(CNC(=O)N2CCC(CN3CCC(C)CC3)CC2)cc1", "Potency": "inconclusive: 89.1 µM [inhibitor, single point]"}, {"compound": "N#Cc1nc(C2CC2)oc1N1CCN(Cc2cccc(F)c2)CC1", "activity change, negative = inhibition": "inactive: -4.73%"}, {"compound": "CCC(Sc1nnc(C)n2c1cc1sccc12)C(=O)Nc1ccccc1F", "note": "(centres undefined)", "Potency": "inconclusive: 89.1 µM [inhibitor, single point]"}, {"compound": "CCOc1cccc(C2c3[nH]c4ccccc4c3CCN2C(=O)c2ccccc2F)c1", "note": "(centres undefined)", "Potency": "inconclusive: 25.1 µM [inhibitor, full curve, poor fit]"}, {"compound": "CN(Cc1ccc(F)cc1)S(=O)(=O)c1nnc(NC(=O)c2ccccc2Br)s1", "Potency": "inconclusive: 56.2 µM [inhibitor, partial curve, poor fit]"}, {"compound": "CCN(CC)S(=O)(=O)c1ccc2c(c1)nc(CN(C)C(=O)Nc1ccc(Cl)cc1)n2C", "Potency": "inconclusive: 50.1 µM [inhibitor, partial curve, poor fit]"}, {"compound": "CC(Nc1ccc(C(F)(F)F)cc1[N+](=O)[O-])c1ccccn1", "note": "(centres undefined)", "activity change, negative = inhibition": "inactive: -8.04%"}, {"compound": "O=C(Cn1nc(N2CCN(c3ccccc3)CC2)ccc1=O)Nc1ccc(F)cc1F", "activity change, negative = inhibition": "inactive: 0.697%"}, {"compound": "Cc1ccc(-c2n[nH]c3c2C(c2cccc(O)c2)N(c2ccc(C(=O)O)cc2)C3=O)cc1", "note": "(centres undefined)", "Potency": "inconclusive: 50.1 µM [inhibitor, partial curve, poor fit]"}, {"compound": "Cc1ccc2nc(/C(C#N)=C/c3ccco3)[nH]c2c1", "activity change, negative = inhibition": "inactive: 39.6%"}, {"compound": "COc1cc(/C=C/C(=O)c2ccc(OCC#N)cc2)ccc1OCCC(C)C", "activity change, negative = inhibition": "inactive: -19%"}, {"compound": "Cc1ccc(C(=O)Nc2ccc(S(=O)(=O)O)c3cc(S(=O)(=O)O)cc(S(=O)(=O)O)c23)cc1NC(=O)c1cccc(NC(=O)Nc2cccc(C(=O)Nc3cc(C(=O)Nc4ccc(S(=O)(=O)O)c5cc(S(=O)(=O)O)cc(S(=O)(=O)O)c45)ccc3C)c2)c1", "Potency": "active: 7.08 µM"}, {"compound": "Cc1ccsc1/C=C1\\Oc2cc(OC(=O)c3cccs3)ccc2C1=O", "Potency": "inconclusive: 56.2 µM [inhibitor, partial curve, poor fit]"}, {"compound": "O=C(c1noc2c1CCCCC2)N1CCN(c2cccc(C(F)(F)F)c2)CC1", "Potency": "inconclusive: 17.8 µM [inhibitor, full curve]"}, {"compound": "CC(=O)c1c(C)oc2c(Br)cc(NS(=O)(=O)c3ccc(Br)cc3)cc12", "activity change, negative = inhibition": "inactive: 7.3%"}, {"compound": "CCOc1ccc(N(CC)S(=O)(=O)N2CCCC(C(=O)Nc3cc(Cl)ccc3C)C2)cc1", "note": "(centres undefined)", "Potency": "inconclusive: 17.8 µM [inhibitor, full curve]"}, {"compound": "COCCn1c(SCc2ccc(C#N)cc2)nnc1-c1ccc(Cl)cc1", "activity change, negative = inhibition": "inactive: -1.58%"}, {"compound": "COC(=O)C1CCN(C(=O)COC(=O)c2cccc3c(=O)c(C)c(-c4ccccc4)oc23)CC1", "activity change, negative = inhibition": "inactive: -16.2%"}, {"compound": "O=C(O)Cn1nnc(-c2ccc(OCc3cccc(C(F)(F)F)c3)cc2)n1", "Potency": "inconclusive: 56.2 µM [inhibitor, single point]"}, {"compound": "CC(C)(C)c1ccc(C(=O)NCCc2csc3nc(-c4ccccc4F)nn23)cc1", "Potency": "inconclusive: 15.8 µM [inhibitor, full curve, poor fit]"}, {"compound": "COc1ccc(CNc2nc(NCc3ccc(OC)cc3)n(S(=O)(=O)c3ccccc3)n2)cc1", "activity change, negative = inhibition": "inactive: -1.25%"}, {"compound": "Cc1ccc(-c2cc(C(=O)OCC(=O)N3CCCC3)c3ccccc3n2)o1", "activity change, negative = inhibition": "inactive: -3.14%"}, {"compound": "C(#CCN1CCN(Cc2ccccc2)CC1)COCCOCc1ccccc1", "activity change, negative = inhibition": "inactive: 2.3%"}, {"compound": "Cc1c(C(=O)N2CCCC2)oc2c1-c1nn(CC(=O)NCCCOC(C)C)cc1CC2", "Potency": "inconclusive: 79.4 µM [inhibitor, partial curve, poor fit]"}, {"compound": "COc1ccc(-c2nc(CSCC(=O)N3CCN(c4cccc(C)c4C)CC3)c(C)o2)cc1OC", "Potency": "inconclusive: 44.7 µM [inhibitor, partial curve, poor fit]"}]}]}
